Test results from the GPR68 mutational scans of Howard et al. (2025).
The least precise scores are not listed. Not listed are two conditions whose scores span a narrow range. In variant names, del marks residues removed and ins residues inserted between the two positions. For some assays here: The concentration of ogerin is not given here.

B1: GPR68, Q15743 (parent)
chain: MGNITADNSSMSCTIDHTIHQTLAPVVYVTVLVVGFPANCLSLYFGYLQIKARNELGVYLCNLTVADLFYICSLPFWLQYVLQHDNWSHGDLSCQVCGILLYENIYISVGFLCCISVDRYLAVAHPFRFHQFRTLKAAVGVSVVIWAKELLTSIYFLMHEEVIEDENQHRVCFEHYPIQAWQRAINYYRFLVGFLFPICLLLASYQGILRAVRRSHGTQKSRKDQIQRLVLSTVVIFLACFLPYHVLLLVRSVWEASCDFAKGVFNAYHFSLLLTSFNCVADPVLYCFVSETTHRDLARLRGACLAFLTCSRTGRAREAYPLGAPEASGKSGAQGEEPELLTKLHPAFQTPNSPGSGGFPTGRLA

Tests used:
[1] = variants of: B1; assay: cAMP reporter score (Enrich2 score, wild type = 0); higher = more signal; HEK293T, FACS bins
[2] = variants of: B1; assay: surface expression score (Enrich2 score, wild type = 0); higher = more signal; HEK293T, FACS bins

Variant: R210_A211insGSG
- cAMP reporter score ([1]; pH 5.5): -1.53
- cAMP reporter score ([1]; pH 6): -1.43
- cAMP reporter score ([1]; pH 6, modulator: ogerin): -1.14
- cAMP reporter score ([1]; pH 6.5, modulator: ogerin): -0.81
- surface expression score [2]: -1.04

Variant: MGNITADNSSMSCTIDHTIHQTLAPVVYVTVLVVGFPANCLSLYFGYLQIKARNELGVYLCNLTVADLFYICSLPFWLQYVLQHDNWSHGDLSCQVCGILLYENIYISVGFLCCISVDRYLAVAHPFRFHQFRTLKAAVGVSVVIWAKELLTSIYFLMHEEVIEDENQHRVCFEHYPIQAWQRAINYYRFLVGFLFPICLLLASYQGILRCVRRSHGTQKSRKDQIQRLVLSTVVIFLACFLPYHVLLLVRSVWEASCDFAKGVFNAYHFSLLLTSFNCVADPVLYCFVSETTHRDLARLRGACLAFLTCSRTGRAREAYPLGAPEASGKSGAQGEEPELLTKLHPAFQTPNSPGSGGFPTGRLA [A211C]
- cAMP reporter score ([1]; pH 5.5): -0.832
- cAMP reporter score ([1]; pH 6): -1.13
- cAMP reporter score ([1]; pH 6, modulator: ogerin): -0.512
- cAMP reporter score ([1]; pH 6.5, modulator: ogerin): -0.529
- surface expression score [2]: -0.687

Variant: MGNITADNSSMSCTIDHTIHQTLAPVVYVTVLVVGFPANCLSLYFGYLQIKARNELGVYLCNLTVADLFYICSLPFWLQYVLQHDNWSHGDLSCQVCGILLYENIYISVGFLCCISVDRYLAVAHPFRFHQFRTLKAAVGVSVVIWAKELLTSIYFLMHEEVIEDENQHRVCFEHYPIQAWQRAINYYRFLVGFLFPICLLLASYQGILRDVRRSHGTQKSRKDQIQRLVLSTVVIFLACFLPYHVLLLVRSVWEASCDFAKGVFNAYHFSLLLTSFNCVADPVLYCFVSETTHRDLARLRGACLAFLTCSRTGRAREAYPLGAPEASGKSGAQGEEPELLTKLHPAFQTPNSPGSGGFPTGRLA [A211D]
- cAMP reporter score ([1]; pH 5.5): 0.197
- cAMP reporter score ([1]; pH 6): -1.01
- cAMP reporter score ([1]; pH 6, modulator: ogerin): -0.456
- cAMP reporter score ([1]; pH 6.5, modulator: ogerin): -0.78
- surface expression score [2]: -0.086

Variant: MGNITADNSSMSCTIDHTIHQTLAPVVYVTVLVVGFPANCLSLYFGYLQIKARNELGVYLCNLTVADLFYICSLPFWLQYVLQHDNWSHGDLSCQVCGILLYENIYISVGFLCCISVDRYLAVAHPFRFHQFRTLKAAVGVSVVIWAKELLTSIYFLMHEEVIEDENQHRVCFEHYPIQAWQRAINYYRFLVGFLFPICLLLASYQGILREVRRSHGTQKSRKDQIQRLVLSTVVIFLACFLPYHVLLLVRSVWEASCDFAKGVFNAYHFSLLLTSFNCVADPVLYCFVSETTHRDLARLRGACLAFLTCSRTGRAREAYPLGAPEASGKSGAQGEEPELLTKLHPAFQTPNSPGSGGFPTGRLA [A211E]
- cAMP reporter score ([1]; pH 5.5): 0.793
- cAMP reporter score ([1]; pH 6): -0.224
- cAMP reporter score ([1]; pH 6, modulator: ogerin): 0.66
- cAMP reporter score ([1]; pH 6.5, modulator: ogerin): 1.95
- surface expression score [2]: 0.376

Variant: MGNITADNSSMSCTIDHTIHQTLAPVVYVTVLVVGFPANCLSLYFGYLQIKARNELGVYLCNLTVADLFYICSLPFWLQYVLQHDNWSHGDLSCQVCGILLYENIYISVGFLCCISVDRYLAVAHPFRFHQFRTLKAAVGVSVVIWAKELLTSIYFLMHEEVIEDENQHRVCFEHYPIQAWQRAINYYRFLVGFLFPICLLLASYQGILRFVRRSHGTQKSRKDQIQRLVLSTVVIFLACFLPYHVLLLVRSVWEASCDFAKGVFNAYHFSLLLTSFNCVADPVLYCFVSETTHRDLARLRGACLAFLTCSRTGRAREAYPLGAPEASGKSGAQGEEPELLTKLHPAFQTPNSPGSGGFPTGRLA [A211F]
- cAMP reporter score ([1]; pH 5.5): -0.365
- cAMP reporter score ([1]; pH 6, modulator: ogerin): -0.644
- cAMP reporter score ([1]; pH 6.5, modulator: ogerin): -0.426
